# Data from article PMC12136788.
# The other results are listed elsewhere or left out.
# T1: UNK ZnF1-6 (called full-length) (human, UniProt Q9C0B0 30-357)
# T1 sequence: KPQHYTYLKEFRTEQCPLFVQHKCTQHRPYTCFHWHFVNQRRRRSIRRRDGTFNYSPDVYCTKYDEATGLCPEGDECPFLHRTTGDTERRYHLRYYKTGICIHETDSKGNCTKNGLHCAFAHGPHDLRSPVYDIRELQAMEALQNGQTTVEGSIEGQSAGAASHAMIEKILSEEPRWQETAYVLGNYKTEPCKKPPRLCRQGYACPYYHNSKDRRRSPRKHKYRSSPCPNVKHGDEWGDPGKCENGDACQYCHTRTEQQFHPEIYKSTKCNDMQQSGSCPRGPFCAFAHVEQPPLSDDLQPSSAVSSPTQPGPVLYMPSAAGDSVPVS
# B1: chr7:137879121:137879144:-|3pUTR|ENSG00000182158|msi1_unk|total|mutant (ssRNA)
# RNA: GGGAGUUCUACAGUCCGACGAUCUAAUCCCCAACCUACUUUCCGUUUUUUUGUUUUUUUUUUAUGGUUAAAAGUAACUUUUGCCGUUUAAAAAAAUCUUUCCUCUUUCAUAUAAAUAAGAAGUGGAAAUUGCCUUUUUAUUGUCAACAGAGGAUUGAGCAUCA
# B2: chr9:121988909:121989747:-|three_prime_utr|ENSG00000175764|control|control|control (ssRNA)
# RNA: GGGAGUUCUACAGUCCGACGAUCACCUCUCCUUAUCGACAAGCUCAAGUUUGAUAUUCGUCUGUAUGUCUUACUCAAGUCCUUAGACCCCUUAGAGAUUUAUAUAGCCAAAGACGGACUCUCUAGGUUUUGUACCGAGCCAUACAACAGAGGAUUGAGCAUCA
# B3: chr11:107429260:107429366:-|CDS|ENSG00000152404|unk|total|mutant (ssRNA)
# RNA: GGGAGUUCUACAGUCCGACGAUCGAGGAAACCCACAUAUUCAGAUAAAGCACAAAAUUGUCAAGAAAGCCGAGAAUCAGACUCCGUAAAAUAUGGUAACAGUUCAAGGGACCGAUAUGCUACAACAGAUACUGCAAAAAACCGCAACAGAGGAUUGAGCAUCA
# B4: chr21:18281039:18281221:-|CDS|ENSG00000154646|control|control|control (ssRNA)
# RNA: GGGAGUUCUACAGUCCGACGAUCACCUCUCCUCAAACAGUCCCUCGAUUAAUAGAUGAAAUUGUCAUAAACCCUCAUUACAAUAGGCGAAGAAAGGACAACGACAUUGCCAUGAUGCAUCUGGAAUUUAAAGUGAAUUACACACAACAGAGGAUUGAGCAUCA
# B5: chr2:5695263:5695412:+|3pUTR|ENSG00000176887|msi1_unk|FALSE|overlapping (ssRNA)
# RNA: GGGAGUUCUACAGUCCGACGAUCUGGUGAUAUAGACCUCAGAGCUGUUAUCUUAGUUUAAAGAUUGUAUAUGUACUGUACUAUAGUAGGACUUUAUGUAUCUCAUACGCUGUGAUGUGGAUGGGGCCCCAGAUGGAAGGUUUGCAACAGAGGAUUGAGCAUCA
# B6: chr2:216672374:216672548:-|3pUTR|ENSG00000115461|msi1|FALSE|unique (ssRNA)
# RNA: GGGAGUUCUACAGUCCGACGAUCUUUUUCUUUUUUUUUUUGAAGACAGCAAUAACCACAGUACAUAUUACUGUAGUUCUCUAUAGUUUUACAUACAUUCAUACCAUAACUCUGUUCUCUCCUCUUUUUUGUUUUCAACUUUAACAACAGAGGAUUGAGCAUCA
# B7: ENSG00000070961:be:win_3951|3pUTR|ENSG00000070961|bound_else_gene|NA|bound_elsewhere_windowed (ssRNA)
# RNA: GGGAGUUCUACAGUCCGACGAUCAUUAGCAGAGCUUUAGUUUAUCUCAGUCCUGGAUGGGAGAGAGAGGGAGGAGUAAAACUGGGCAAGACAAAGAGCCCUGGAUCGUUGAAUUGAUAGUUUAAUUUCUGCUGUUGGCUGUUACAACAGAGGAUUGAGCAUCA
# B8: ENSG00000107863:be:win_5001|CDS|ENSG00000107863|bound_else_gene|NA|bound_elsewhere_windowed (ssRNA)
# RNA: GGGAGUUCUACAGUCCGACGAUCAAAUUCUGAAGGAAGUGAAUUAAGUUGCACCGAGGGAAGUUUAACAUCAAGUUUAGAUAGCCGGAGACAGCUCUUCAGUUCCCAUAAACUCAUCGAAUGUGAUACUCUUUCCAGGAAAAACAACAGAGGAUUGAGCAUCA
# B9: chr4:186588032:186588133:-|3pUTR|ENSG00000083857|msi1|FALSE|unique (ssRNA)
# RNA: GGGAGUUCUACAGUCCGACGAUCUUUUUUUACUAUAACCAGGGUUUCAUUCUGUCUUUUUCCACUGAAGUGUGACAUUUUGUUAGUACAUUUCAGUGUAGUCAUUCAUUUCUAGCUGUACAUAGGAUGAAGGAGAGAUCAGAUCAACAGAGGAUUGAGCAUCA
# B10: chr6:105097214:105097376:-|3pUTR|ENSG00000112276|msi1|total|mutant (ssRNA)
# RNA: GGGAGUUCUACAGUCCGACGAUCCAUGCCUUGGUUUCCUCUCCCUUCCCUCUUUCCAAUCCUGGUUUCCUAACCUCCUCUUGCCGUAAUUCUCAACUCAACUCAAAGUCCCAAGAAUUUGGAAUGGCCGGAUGCUGUGCGGGGCAACAGAGGAUUGAGCAUCA
# B11: chr7:5527443:5527567:-|3pUTR|ENSG00000075624|msi1_unk|FALSE|overlapping (ssRNA)
# RNA: GGGAGUUCUACAGUCCGACGAUCCAUCCCCCAAAGUUCACAAUGUGGCCGAGGACUUUGAUUGCACAUUGUUGUUUUUUUAAUAGUCAUUCCAAAUAUGAGAUGCGUUGUUACAGGAAGUCCCUUGCCAUCCUAAAAGCCACCCAACAGAGGAUUGAGCAUCA
# B12: chr1:119916538:119916684:-|CDS|ENSG00000134250|unk|FALSE|bound_elsewhere (ssRNA)
# RNA: GGGAGUUCUACAGUCCGACGAUCAGAGACACCUCUGUUUCUUGCUGCCCGGGAGGGGAGCUAUGAAGCAGCCAAGAUCCUGUUAGACCAUUUUGCCAAUCGAGACAUCACAGACCAUAUGGAUCGUCUUCCCCGGGAUGUGGCCAACAGAGGAUUGAGCAUCA
# B13: chr7:6403584:6403671:+|3pUTR|ENSG00000136238|msi1_unk|FALSE|overlapping (ssRNA)
# RNA: GGGAGUUCUACAGUCCGACGAUCUUUUCUAGUAACUAGGUGUAAAAAUCAUGUGUUGCAGCUUUAUAGUUUUUAAAAUAUUUUAGAUAAUUCUUAAACUAUGAACCUUCUUAACAUCACUGUCUUGCCAGAUUACCGACACUGCAACAGAGGAUUGAGCAUCA
# B14: chr11:118751385:118751486:-|3pUTR|ENSG00000110367|msi1|FALSE|unique (ssRNA)
# RNA: GGGAGUUCUACAGUCCGACGAUCUUGAAGUCUCUUCCCUUUCUACCCAGUACUCGAGCCCAGGGCUAGAAGUUGAAACUCACUAGUAAUGUUAAACACCAUUUUUUUUUUCUUUUUGGGGAGGAGUUGAUAUGCAACUGCAGUCAACAGAGGAUUGAGCAUCA
# B15: ENSG00000070961:be:win_5051|3pUTR|ENSG00000070961|bound_else_gene|NA|bound_elsewhere_windowed (ssRNA)
# RNA: GGGAGUUCUACAGUCCGACGAUCUUGAAUUUAGUUUGUCUAAAAUAGUCUCACAGGUAAAAAACAUAACAACAAUGACCACCAUUGUCUUUGAUACAUUUAUUUUAAUUCUUAAGUGGCCAAAUAACAGAUUAGGUAAAAUGACAACAGAGGAUUGAGCAUCA
# B16: chr10:106575406:106575507:-|3pUTR|ENSG00000108018|unk|FALSE|unique (ssRNA)
# RNA: GGGAGUUCUACAGUCCGACGAUCUUAUGGACUGGGCAAAGCCCACUAUAAACUAUAGGAGAAAGAAGUUCUGAUAAACCUCUUAGUAUGCUCAGCCUCCUUCUUUGCUAUGUCCCUAAGCCAACAGGGUAUAACACAGGCCCUCAACAGAGGAUUGAGCAUCA
# B17: chrX:47636291:47636398:-|3pUTR|ENSG00000126767|unk|FALSE|unique (ssRNA)
# RNA: GGGAGUUCUACAGUCCGACGAUCGCCUGCCCUUGGGGAGAUGAGGGAGCCCUGUCUGCGUUUUUGGAUGUGAGUAGAAGAGUUAGUUUGUUUUGUUUUAUUAUUCCUGGCCAUACUCAGGGGUCCAGGAAGAAUUUGUACCAUCAACAGAGGAUUGAGCAUCA
# B18: chrX:153695679:153695780:+|3pUTR|ENSG00000130821|msi1|FALSE|unique (ssRNA)
# RNA: GGGAGUUCUACAGUCCGACGAUCGGCAGCAGAACCAAGGCAAAUAUUUCAGCUGGGCUAUACCCCUCUCCCCAUCCCUGUUAUAGAAGCUUAGAGAGCCAGCCAGCAAUGGAACCUUCUGGUUCCUGCGCCAAUCGCCACCAGCAACAGAGGAUUGAGCAUCA
# B19: ENSG00000168003:stop:overlap|stop_codon|ENSG00000168003|stop_codon|NA|stop_codon (ssRNA)
# RNA: GGGAGUUCUACAGUCCGACGAUCCUGACAUCCCAGGGGCUGUAAGUGCCAACAUGACUGUGAAGGUAAGAGUUCUAGAUGGGUAGAAACUGACCGGUGGAGGGUGGGCUGGGCUUGUAGAAGUCUGUACCCAGGGGAGCCCCUCAACAGAGGAUUGAGCAUCA
# B20: chr8:97851660:97851768:+|3pUTR|ENSG00000104341|msi1_unk|total|mutant (ssRNA)
# RNA: GGGAGUUCUACAGUCCGACGAUCAUUAACUGCCGAAUUCUUCCUGUACGAUUGGGGAUAUAAUGGGCUUCACUAACCUUCCCCCGGCAUUGAAACUUCCCCCAAAUCUGAUGGACCCCGAAGUCUGCUUUUGUACCUGCUGGGCAACAGAGGAUUGAGCAUCA
# B21: chr12:48145849:48145950:+|3pUTR|ENSG00000152556|msi1|FALSE|unique (ssRNA)
# RNA: GGGAGUUCUACAGUCCGACGAUCCAUGACCAGUUCUGGCCAGGAGCUGGAGGAGCAGGCAGUGGGUGGGAGCUCCUUUUAGGUAGAAUUUAACAUGACUUCUGCCCCAGCUUUAUCUGUCACACAAGGCUGGGCACCUCUAGUCAACAGAGGAUUGAGCAUCA
# B22: chr3:129431351:129431457:-|3pUTR|ENSG00000129071|unk|total|mutant (ssRNA)
# RNA: GGGAGUUCUACAGUCCGACGAUCACUUCAAAAAAGCUUAAUUAAGUACAACCAACCACCUUUCCAGCCACCGAGAUUUUAAUCCGCCCAACCCGAAGCCCCGUGUGUGUGCUUUCUUAAUGUGUGUGCCAAUGGUGGAUCUUUCAACAGAGGAUUGAGCAUCA
# Biological target: T1, UNK ZnF1-6 (called full-length)
# Experiment: nsRBNS (natural sequence RNA bind-n-seq); RBNS binding buffer (assumed for nsRBNS): 25 mM Tris pH 7.5, 150 mM KCl, 3 mM MgCl2, 0.01% Triton X-100, 500 ug/ml BSA, 20 U/ml SUPERase-In, 4 C; UNK is unkempt and MSI1 is Musashi-1; names of the RNAs are library labels; protein concentration not given here; high values mean tight binding
row,Binder,binding signal [enrichment R]
1,B1,0.762
2,B2,1.29
3,B3,0.603
4,B4,0.684
5,B5,1.36
6,B6,12.2
7,B7,2.5
8,B8,0.312
9,B9,1.31
10,B10,0.905
11,B11,0.814
12,B12,1.27
13,B13,3.16
14,B14,5.51
15,B15,4.11
16,B16,0.662
17,B17,8.09
18,B18,1.04
19,B19,0.906
20,B20,0.597
21,B21,6.28
22,B22,0.636
